In PubChem BioAssay AID1347073 (National Center for Advancing Translational Sciences (NCATS), 2019):
Hit rate of the full screen: of about 45,000 compounds, about 200 (0.44%) were called active. Not shown: some 7% with an inconclusive outcome. Calls come from the whole dose curve; as a rule, active = well fitted activation curve with a large enough effect; inconclusive = small, poorly fitted or top-dose-only effect; inactive = no such curve, though single readings can be large or run the other way. This is one part of the list.

assay: qHTS of TDP-43 Inhibitors: NCGC Sytravon Library Screen; settings: yeast TDP-43 toxicity rescue, BacTiter-Glo growth, 24 h; series mostly up to 46.1 µM; growth rescue (activation): at the top concentration; note: 0% is about no effect; nearly all actives have a fitted effect of over 55% in size
How it was run: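 TDP-43-expressing yeast, pregrown in raffinose, seeded at OD600 0.02 in galactose medium with compound for 24 hr at 30 deg C. Growth read by BacTiter-Glo luminescence, so rescue of toxicity appears as activation.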

Compound | growth rescue (activation) | Potency
CC1CCCC(C)N1C(=O)COC(=O)c1ccccc1O (stereo not drawn) | inactive: 6.57% | 
Cc1ccc(/C=C/C(=O)O)cc1S(=O)(=O)N(C)CCO | inactive: -2.42% | 
Nn1c(Cc2cccc3ccccc23)nnc1SCc1ccc(Cl)c(Cl)c1 | inactive: -2.54% | 
CN1CCN(c2nc3ccccn3c(=O)c2/C=C(\C#N)S(=O)(=O)c2ccccc2)CC1 | inactive: -3.81% | 
COc1cc(C(=O)NCc2ccc(-c3nc4ccccc4s3)cc2)cc(OC)c1OC | inactive: -2.27% | 
CCOC(=O)N1CCN(c2nc3c(C)cccn3c(=O)c2C=O)CC1 | inactive: 14.3% | 
COc1cc(NC(=O)Cc2c(C(=O)O)n(C)c3ccccc23)cc(OC)c1OC | inactive: 8.99% | 
CC[C@H](C)[C@H](NC(N)=O)C(=O)Nc1ccc(NC(C)=O)cc1 | inactive: 15.3% | 
COc1ccccc1NC(=O)COC(=O)c1ccc(S(=O)(=O)N2CCCCCC2)cc1 | inactive: 4.15% | 
O=C1/C(=C/c2cccc(O)c2)SC(=S)N1CC1CCCO1 (stereo not drawn) | inactive: -3.16% | 
CNC(=O)c1oc(-c2ccc(Cl)cc2)nc1C | inactive: 22.6% | 
CCc1nc2ccc(C(=O)N(CC)CCN(C)C)cn2c1N(C)Cc1cccs1 | inactive: 0.89% | 
CCc1cccc(N(CC(=O)NC2CCCCC2)C(=O)c2csnn2)c1 | inactive: -8.91% | 
COc1ccc(-n2nc(C(=O)NCC(=O)NCCCN3CCC(C)CC3)c3ccccc3c2=O)cc1Cl | inactive: 4.87% | 
O=C(COC(=O)C1CCCCC1)Nc1ccc(N2CCCCC2)cc1 | inactive: -21.2% | 
CCCCN(C)Cc1c(C)[nH]c2ccccc2c1=O | inactive: -11.7% | 
CC(/C=N\NC(=O)c1cc(C)oc1C)=C\c1ccccc1 | inactive: 1.05% | 
CN(C)S(=O)(=O)c1cccc(NC(=O)COC(=O)CCC(=O)c2ccc(F)cc2)c1 | inactive: 3.48% | 
COc1cc(NC(=S)NCc2cccnc2)c(OC)cc1Cl | inactive: 4.12% | 
COc1cccc(N2CCN(C(=O)c3nc4nc(C)cc(C)n4n3)CC2)c1 | inactive: 0.791% | 
O=C(NCc1ccco1)C(c1ccncc1)N(C(=O)Cn1nnc2ccccc21)c1ccccc1 (stereo not drawn) | inactive: 12.5% | 
CCOC(=O)c1sc2nc(SCC(=O)NCc3ccco3)n(Cc3ccccc3)c(=O)c2c1C | inactive: 1.4% | 

Compound | growth rescue (activation) | Potency
COc1ccccc1C(O)c1ncc(-c2cccc3ccccc23)[nH]1 (stereo not drawn) | inactive: 0.924% | 
COc1ccc(NCC(=O)NN=C2CCS(=O)(=O)c3ccc(F)cc32)cc1 | inactive: -15.2% | 
COc1ccc(C(=O)Nc2cc(C)on2)cc1[N+](=O)[O-] | inactive: 25.2% | 
CC1=CC(C)C2(CO)COC(c3ccc(O)cc3)C1C2C (stereo not drawn) | inactive: 2.64% | 
OC(COC(c1ccc(Cl)cc1)c1ccc(Cl)cc1)CN1CCN(c2ccccn2)CC1 (stereo not drawn) | inactive: 7.8% | 
C=CCn1c(C(CCCC)CC(O)COCC(C)C)n[nH]c1=S (stereo not drawn) | inactive: 6.46% | 
CC12CCC(=O)C=C1CCC1C2CCC2(C)C1CC[C@]2(O)C(=O)CO (stereo partly drawn) | inactive: 15.4% | 
CC(C(=O)O)N1C(=O)/C(=C/c2cccn2C)SC1=S (stereo not drawn) | inactive: 35.8% | 
O=C(/C=C/c1ccccc1)NC1CC2CCC1C2 (stereo not drawn) | inactive: 4.67% | 
Cc1ccc(N/N=C/c2ccc3c(c2)OCCO3)cc1Cl | inactive: -5.84% | 
COc1cc(/C=N/NC(=O)CCNC(=O)c2ccccc2Cl)ccc1O | inactive: -5.27% | 
O=C(CCC(=O)OCC(F)(F)C(F)F)Nc1ccc(F)cc1F | inactive: 6.63% | 
O=C(c1cccc(Cl)c1)N1CCN(c2ncnc3c2cnn3-c2ccccc2)CC1 | inactive: 9.24% | 
O=C(Nc1ccc(Cl)c(Cl)c1)N1CCC(N2CCCCC2)CC1 | inactive: 5.6% | 
COc1cccc(C(=O)Nc2ccc(S(=O)(=O)Nc3cc(C)nc(C)n3)cc2)c1 | inactive: 10.9% | 
CC(C)C(NC(=O)C1CCCCC1)C(=O)NC1=NCCS1 (stereo not drawn) | inactive: 9.68% | 
COc1ccccc1/C=C/C=NC1C(=O)N(c2ccccc2)[N+](C)=C1C (stereo not drawn) | inactive: -12.7% | 
O=C(OCc1ccccc1)c1cnc(Cl)c(Cl)c1 | inactive: 1.72% | 
O=C(COc1ccc(/C=N/NC(=O)c2ccncc2)cc1)Nc1ccccc1 | inactive: 13.4% | 
COCCCNC(=O)CCCn1c(=O)c2ccccc2n(Cc2cccc([N+](=O)[O-])c2)c1=O | inactive: 25.9% | 
O=C(Cc1cc(=O)[nH][nH]1)N/N=C/c1c(Cl)cccc1Cl |  | inactive
COc1cccc(NC2c3ccccc3C(=O)N2Cc2ccccc2Cl)c1 (stereo not drawn) | inactive: 1.1% | 

Compound | growth rescue (activation) | Potency
O=C(NC1CCOC1)c1ccc(OC2CCN(CCc3ccccc3)CC2)cc1 (stereo not drawn) | inactive: 3.9% | 
CCN(Cc1nc(-c2ccc(OC)cc2)no1)C(=O)c1ccoc1C | inactive: 21.8% | 
OCC1(Cc2ccc(Cl)cc2)CCN(CCCc2ccccc2)CC1 | inactive: -9.41% | 
O=C(NCc1ccco1)C1CCCN1C(=O)Nc1ccc(Br)cc1 (stereo not drawn) | inactive: -1.5% | 
CCS(=O)(=O)N1CCC(C(=O)NCc2ccc(OC)cc2)CC1 | inactive: 9.74% | 
Cc1cccn2c(=O)c3cc(C#N)c(=NC(=O)c4cccs4)n(CC(C)C)c3nc12 | inactive: -4.55% | 
Cc1ccc(C)c(CN2C(=O)c3ccccc3S(=O)(=O)c3ccc(C(=O)N4CCc5ccccc54)cc32)c1 | inactive: 13.5% | 
Cc1cc(C(=O)Nc2ccccc2C(=O)O)ccc1NC(=O)COc1cccc([N+](=O)[O-])c1 | inactive: 14.3% | 
Cc1nn(C)c(Cl)c1CN1CCC(Oc2ccc(C(=O)N3CCCC3)cc2)CC1 | inactive: 7.74% | 
COc1ccc(C2C3=C(NCCN=C3c3ccccc3)C(=O)N2c2ccccc2)c(OC)c1 (stereo not drawn) | inactive: 0.216% | 
COc1ccc(CCNC(=O)CN(c2cccc([N+](=O)[O-])c2)S(C)(=O)=O)cc1 | inactive: 14.8% | 
O=C1CCC(C(=O)N2CCc3ccccc3C2)CN1CCCN1CCOCC1 (stereo not drawn) | inactive: 5.38% | 
CCCCOc1ccc(Cc2cnc(N)nc2N)cc1 | inactive: 15.3% | 
COc1ccc(-c2cc(-c3cccs3)nc(OC)c2C#N)cc1OC | inactive: 18.5% | 
Nc1cc(S(=O)(=O)N2CCOCC2)ccc1Oc1cccc(Br)c1 | inactive: 8.38% | 
Cc1ccc(/C=C(/NC(=O)c2ccccc2)C(=O)NC(Cc2c[nH]c3ccccc23)C(=O)O)cc1 (stereo not drawn) | inactive: 8.72% | 
Cc1cccc(C)c1NC(=S)NC(=O)c1ccccc1F | inactive: 15.8% | 
COc1cc(/C=N/n2c(C)n[nH]c2=S)ccc1OCc1ccccc1 | inactive: 11.5% | 
COc1ccc(-c2csc(NC(=O)CSc3ccc(Br)cc3)n2)c(OC)c1 | inactive: 3.65% | 
CN1CCN(c2ncnc3c2ncn3[C@H]2CN(Cc3ccncc3)C[C@@H](CO)O2)CC1 | inactive: -4.42% | 
CCC(C)NC(=O)NC(=O)CSc1nnc(-c2ccccc2F)n1C1CC1 (stereo not drawn) | inactive: -18.5% | 
O=C(NC1CCS(=O)(=O)C1)C1CCCN(S(=O)(=O)c2ccc(Cl)cc2)C1 (stereo not drawn) | inactive: -21.6% | 

Compound | growth rescue (activation) | Potency
CC1CC(=O)Nc2ccccc2N1C(=O)CSc1ccc2ccccc2n1 (stereo not drawn) | inactive: -7.96% | 
Cc1ccccc1OCC(=O)Nc1ccccc1-c1ccccc1NC(=O)COc1ccccc1C | inactive: 8.49% | 
O=S(=O)(Nc1ccc(Oc2ncccn2)c(Cl)c1)c1ccc(F)cc1 | inactive: 39% | 
Oc1ccc(N2CCN(C(=S)NCc3ccccc3)CC2)cc1 | inactive: 7.79% | 
Cc1ccc(N(CC(=O)N/N=C/c2cccc(Br)c2)S(C)(=O)=O)cc1 | inactive: -22.3% | 
Cc1cc(C)cc(NS(=O)(=O)c2cccs2)c1 | inactive: 2.79% | 
Cc1ccc(C(=O)N[C@H](C(=O)OCC(=O)c2ccc[nH]2)C(C)C)cc1 | inactive: -8.75% | 
COCc1cccc(NC(=O)CCc2ccccc2)c1 | inactive: 6.15% | 
O=C(CSc1nnnn1C1CCCC1)NCCc1ccccc1 | inactive: 3.3% | 
O=c1c2ccccc2cnn1Cc1n[nH]c(=S)n1-c1ccccc1F | inactive: 4.93% | 
COC(=O)N1CCN(CCc2ccccc2)CC1 | inactive: 7.48% | 
CCC(=O)NC(=S)Nc1ccc(NC(=O)c2ccc(OC)cc2)cc1 | inactive: 26.2% | 
Cc1cc(C(=O)CN2CCC(C)CC2)c(C)n1-c1ccccc1F | inactive: -0.572% | 
O=[N+]([O-])c1ccc(S(=O)(=O)Nc2nnc(C3CCCCC3)s2)cc1 | inactive: 11.9% | 
CCCOc1ccc(C2Nc3cccc4cccc(c34)N2)cc1 | inactive: 17.2% | 
O=c1c(C=NCCCO)c(-c2ccccc2)[nH]n1-c1nc2ccccc2s1 | inactive: -4.54% | 
O=C1CCCC(O)=C1N=Nc1ccc(Cl)c(Cl)c1 | inactive: 14.2% | 
C=CCC(C(=O)c1ccccc1)[N+](C)(C)CC=C (stereo not drawn) | inactive: -21.4% | 
CC1CCCN(Cc2nc(Cc3ccccc3Cl)no2)C1 (stereo not drawn) | inactive: -0.891% | 
O=C(CN1CCCCCC1)Nc1ccc(Oc2ccccc2)cc1 | inactive: 9.3% | 
C/C=C/c1ccc(OCCCCOc2ccc(OC)cc2)c(OC)c1 | inactive: 10% | 
Cc1nn(C)cc1CN(C)C(=O)c1cc2nc(-c3ccco3)cc(C(F)(F)F)n2n1 | inactive: 26.6% | 

Compound | growth rescue (activation) | Potency
O=C(O)CC1c2ccccc2CCN1S(=O)(=O)c1ccc(F)cc1 (stereo not drawn) | inactive: 3.47% | 
Cc1cccc(C)c1NC(=O)CS(=O)CC(=O)Nc1ccc(N2CCOCC2)cc1 (stereo not drawn) | inactive: -3.11% | 
COC(=O)c1cccc(NC(=O)C2COc3ccccc3O2)c1C (stereo not drawn) | inactive: 34.8% | 
COc1cccc(CNc2nc3nc4c(c(=O)n3[nH]2)CCC4)c1 | inactive: -3.89% | 
N#Cc1ccccc1NC(=O)COC(=O)CCc1ccccc1 | inactive: 33.3% | 
O=C(CN1CCC(C(=O)c2ccc3c(c2)OCCO3)CC1)NCc1ccccc1 | inactive: 8.98% | 
O=S(=O)(c1cccs1)N1CN(C2CCCCC2)c2nc3ccccc3nc21 | inactive: 11.7% | 
COc1ccccc1NS(=O)(=O)c1ccc2oc(=S)[nH]c2c1 | inactive: 16.7% | 
CC(C(=O)N1CCCCCC1)N(c1ccc(Cl)cc1)S(C)(=O)=O (stereo not drawn) | inactive: 11.8% | 
O=C(/C=C/c1ccc(-c2ccc(F)cc2)o1)N1CCCC1 | inactive: 30.4% | 
COc1cc2c(cc1OC)CN(CC(=O)NC(=O)NCc1ccccc1)CC2 | inactive: 6.13% | 
COCCNC(=O)C(c1ccc(O)cc1)N(Cc1cccs1)C(=O)CCC(=O)Nc1ccccn1 (stereo not drawn) | inactive: -7.45% | 
OCCNCCOc1ccccc1F | inactive: -20.8% | 
N/C(=N\OC(=O)CN1C(=O)c2ccccc2C1=O)c1ccc(Br)cc1 | inactive: -2.32% | 
Cc1cc(Br)c(NC(=O)COC(=O)CSc2nnc(-c3ccc(Cl)cc3)o2)c(Br)c1 | inactive: -4.57% | 
Cc1ccccc1S(=O)(=O)N(CC(O)CN1C(=O)NC(C)(C)C1=O)c1ccccc1 (stereo not drawn) | inactive: 1.8% | 
COc1ccc(S(=O)(=O)N2CCN(C(=S)Nc3ccc(S(N)(=O)=O)cc3)CC2)cc1 | inactive: 8.49% | 
COCOc1ccc(-c2ncc(OCCN3CCCC3=O)nc2NC(=O)c2cc3ccccc3s2)cc1 | inactive: 15.3% | 
N/C(=N\N=C\c1ccc(O)cc1)c1nonc1N | inactive: 9.51% | 
COc1ccccc1NC(=S)N1CCC(NC(=O)c2ccco2)CC1 | inactive: 12% | 
